The campaign covered roughly 48,000 compounds. About 1,200 (2.5%) were called active. About 2% were inconclusive and are not listed.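 The calls were made as follows: active = activation of at least 60% and not above a set upper limit (about 1 call in 100 departs from these limits); inconclusive = activation of 40% to 60%, or above that upper limit; inactive = activation under 40%.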 The list shows a part of the results.

Chain of UniProt O75388 (O75388 whole entry, looked up): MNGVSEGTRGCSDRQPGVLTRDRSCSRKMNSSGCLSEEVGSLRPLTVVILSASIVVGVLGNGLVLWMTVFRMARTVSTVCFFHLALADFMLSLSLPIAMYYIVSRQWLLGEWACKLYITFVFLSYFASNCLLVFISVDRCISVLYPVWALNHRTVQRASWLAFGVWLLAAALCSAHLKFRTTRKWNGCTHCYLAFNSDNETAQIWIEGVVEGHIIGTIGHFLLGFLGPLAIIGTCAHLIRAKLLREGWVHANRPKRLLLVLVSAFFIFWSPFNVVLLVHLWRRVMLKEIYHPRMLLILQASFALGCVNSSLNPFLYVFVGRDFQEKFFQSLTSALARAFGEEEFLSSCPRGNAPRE

The experiment deals with Probable G-protein coupled receptor 32 (Homo sapiens) (UniProt O75388). In words: qHTS for Agonists of Human Resolvin D1 Receptor DRV1. Conditions: CHO-K1 GPR32 beta-arrestin PathHunter luminescence, 90 min; at 76.9 µM; active compounds read high; zero percent set by DMSO-only wells. In outline:
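Using DMSO wells as EC0, agonist-induced signal was taken as chemiluminescence from beta-Gal reconstituted upon beta-arrestin recruitment to GPR32 in CHO-K1 cells after 90 min compound treatment.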
On the technique in general: qHTS replaces the single test concentration by a dilution series.
Take `O=C(CCCCCn1c(=O)[nH]c2ccccc2c1=O)NCc1ccccc1`: the activation is inactive: -18.4%.

Regarding `Cc1ccc(C)c(NC(=O)CSC2=Nc3ccccc3N=C(c3ccc(F)cc3)C2)c1`, the activation is inactive: -7.64%.

Take `CCOC(=O)c1cc(S(=O)(=O)N2CCN(c3ccc(C)cc3C)CC2)[nH]n1`: the activation was inactive: -10.8%.

With `Cc1ccc(-c2nnc3c4ccccc4c(C)nn23)cc1NC(=O)c1ccccc1Cl`, the activation is inactive: -2.9%.

For the molecule `Cc1ccc(S(=O)(=O)c2nnn3c2nc(N2CCCC2)c2sccc23)cc1`, the activation is inactive: -2.46%.

As for `COc1cccc(N2CCN(c3ncnc4onc(-c5ccc(F)cc5)c34)CC2)c1`, the activation is inactive: -0.163%.

As to `Cc1nc2scc(C)n2c(=O)c1S(=O)(=O)N1CCN(c2cccc(C(F)(F)F)c2)CC1`, the activation was inactive: 5%.

Turning to `CN(C)c1ccc(NC(=O)Cn2cc(S(=O)(=O)Cc3cccc(Cl)c3)c3ccccc32)cc1`, the activation is inactive: -18.1%.

`COc1ccc(N2CC(NC(=O)c3cc4ccccc4o3)CC2=O)cc1` (configuration not stated): the activation was inactive: -3%.

Take `CC(=O)c1cc(-c2ccccc2)n(CCC(=O)Nc2ccc(C)cc2C)c1C`: the activation was inactive: -4.35%.

In the case of `COc1ccccc1CNC(=O)CCC1N=C2c3ccccc3N=C(SCc3ccc(C)cc3)N2C1=O` (configuration not stated), the activation was inactive: -40.7%.

For the molecule `Cc1cc(C(=O)NCc2ccc(Cl)cc2)c2c(C)nn(-c3ccccc3)c2n1`, the activation is inactive: -7.17%.

With `COc1ccc(CCC(=O)NCCc2csc(-c3ccc(C(F)(F)F)cc3)n2)cc1`, the activation is inactive: 23%.

Regarding `CCCc1nnc(NC(=O)c2cc(=O)c3cc(Cl)ccc3o2)s1`, the activation is inactive: 7.69%.

`CC1Cc2cc(S(=O)(=O)NCCc3ccccc3)ccc2N1C(=O)C1CCC1` (configuration not stated): the activation is inactive: 25.7%.

`CS(=O)(=O)N1CCc2cc(C(=O)N3CCN(c4ccccc4)CC3)ccc21`: the activation was inactive: -4.12%.

Consider `CC1CCC(N2CC(=O)N(C3CCCCC3)C(c3ccc(F)cc3)C2=O)CC1` (configuration not stated), for which the activation is inactive: -27.7%.

`Cc1ccc2c(c1)N(C(=O)Nc1cccc(C)c1C)CCO2`: the activation was inactive: -24.6%.

As for `O=C(COc1ccccc1[N+](=O)[O-])Nc1cccc(-c2nc3ccccc3s2)c1`, the activation is active: 83.7%.

On to `COc1ccc(N(CC(=O)Nc2cc(C)ccc2C)S(=O)(=O)c2ccc(OC)c(OC)c2)cc1`, for which the activation is inactive: -1.46%.

As for `Cn1c(=O)c2c(nc(Oc3ccccc3)n2Cc2c(Cl)cccc2Cl)n(C)c1=O`, the activation is inactive: 0.241%.

On to `COCCCNC(=O)CSc1nc2cc3c(cc2c(=O)n1CCCC(=O)NCc1ccc(OC)cc1)OCO3`, for which the activation was inactive: -14.4%.

Turning to `CCOc1ccc(NC(=O)CN2C(=O)COc3ccc(S(=O)(=O)NC4CCCC4)cc32)cc1`, the activation was inactive: 1.42%.

As to `COc1cc(NC(=O)CSc2nc3nc(C)c(Cc4ccc(C)cc4)c(C)n3n2)cc(OC)c1OC`, the activation is inactive: 11.4%.

In the case of `O=C(Nc1ccc(F)cc1F)c1ccc2c(O)c(S(=O)(=O)c3ccc(Cl)cc3)c(=O)[nH]c2c1`, the activation is inactive: 2.07%.

Take `CCc1ccc(C2c3c(oc4ccc(F)cc4c3=O)C(=O)N2c2nc(C)c(C(=O)OC)s2)cc1` (configuration not stated): the activation is inactive: -10.1%.

Turning to `O=C(Nc1c(C(=O)O)oc2ccccc12)c1ccc(C(F)(F)F)cc1`, the activation is inactive: -18.4%.

On to `O=C(COCc1cc(-c2ccc3c(c2)OCO3)on1)NCc1ccccc1Cl`, for which the activation is inactive: -17.9%.

For `O=C(CSc1cn(CC(=O)N2CCOCC2)c2ccccc12)Nc1ccccc1`, the activation is inactive: -5.99%.

Regarding `CCOc1ccc(C(=O)Nc2ccc(S(=O)(=O)Nc3nc(C)cc(C)n3)cc2)cc1OC`, the activation is inactive: -4.88%.

`COc1ccccc1OCC(=O)NCc1nc(-c2ccc(Cl)cc2)no1`: the activation was inactive: -14.2%.

As to `NC(=O)c1ccc2[nH]ccc2c1`, the activation is inactive: -5.19%.

On to `O=C(COc1ccccc1)Nc1ccccc1OCc1cc(=O)n2ccccc2n1`, for which the activation was inactive: -4.64%.

Take `Cc1ccccc1Cc1c(C)nc2nc(SCC(=O)NCCc3ccc(Cl)cc3)nn2c1C`: the activation was inactive: -1.53%.

As for `CC1=C(c2ccc(C)c(C)c2)S(=O)(=O)N(Cc2ccc(C(=O)NC(C)c3ccccc3)cc2)C1=O` (configuration not stated), the activation was inactive: -0.735%.

Turning to `Cc1ccc(C)c(OCC(=O)Nc2ccc(S(=O)(=O)Nc3onc(C)c3C)cc2)c1C`, the activation is inactive: 13.1%.

As to `CCC(C(=O)Nc1ccccc1OC)n1nc(C)c2sc3ccccc3c2c1=O` (configuration not stated), the activation is inactive: -15.8%.

With `CCCc1c(-c2ccc(O)cc2)nn(-c2ccc(O)cc2)c1-c1ccc(O)cc1`, the activation is inactive: 5.36%.

Turning to `CC(Sc1cn(CCNC(=O)c2ccccc2F)c2ccccc12)c1ccccc1` (configuration not stated), the activation is inactive: 15.2%.

For the molecule `Cc1ccc(NC(=O)c2c(C)oc3nc(C)nc(N4CCCC4)c23)c(C)c1`, the activation was inactive: -18.8%.

In the case of `CCN(CCCNC(=O)CSc1cc(=O)n(CC)c2ccccc12)c1cccc(C)c1`, the activation is active: 74.8%.

For the molecule `Cc1ccc2c(=O)c(C(=O)c3ccc(Cl)cc3)cn(CC(=O)NC3CCCCC3)c2n1`, the activation is inactive: 9.03%.

For the molecule `CCOc1ccc(CCNC(=O)c2ccc(CS(=O)Cc3cccc(Cl)c3)o2)cc1` (configuration not stated), the activation is inactive: -19.7%.

On to `COc1ccc(C)cc1NC(=O)Cn1c(=O)ccc2cc(S(=O)(=O)N3CCC(C)CC3)ccc21`, for which the activation was inactive: -17.1%.

In the case of `COC(=O)c1ccc(NC(=O)CSc2ncc3c(n2)-c2cc(Cl)ccc2N(Cc2ccccc2)S3(=O)=O)cc1`, the activation is inactive: 7.48%.

As to `COc1ccc(NC(=O)c2c(NCc3sccc3C)sc3c2CCCCC3)c(OC)c1`, the activation was inactive: -1.91%.

For the molecule `O=S(=O)(c1ccc(F)cc1)N(Cc1nc(-c2ccc(Cl)cc2)no1)C1CCCCC1`, the activation is inactive: -8.65%.

With `O=C(CCS(=O)(=O)c1cc(Br)cc2c1N(C(=O)C1CC1)CC2)NCc1ccccc1Cl`, the activation was inactive: -2.93%.

`Cc1c(NC(=O)c2cccc3c(Cl)cccc23)cccc1-c1nc2ccccc2o1`: the activation was inactive: 6.93%.

Turning to `COc1ccc(Br)cc1C(=O)Nc1ccc(-c2nc3cc(Cl)ccc3o2)cc1`, the activation was inactive: -3.73%.

On to `CCC(C(=O)Nc1cc(F)ccc1F)n1nc(-c2cc(C)ccc2C)ccc1=O` (configuration not stated), for which the activation was inactive: 0%.

As for `CCOC(=O)N1CCc2c(sc3c2c(=O)n(Cc2ccccc2)c(=O)n3CC(=O)Nc2ccc(C)c(C)c2)C1`, the activation was inactive: -6.15%.

For the molecule `Cc1ccc(NC(=O)CCC(=O)N2CCSc3ccccc32)cc1Cl`, the activation was inactive: 12.5%.

For the molecule `COC(=O)C(C)n1nnc2sc(-c3ccccc3)cc2c1=O` (configuration not stated), the activation is inactive: 34.9%.

For `COc1ccc2c(c1)c(=O)c(S(=O)(=O)c1ccc(C)cc1)cn2Cc1ccccc1C`, the activation was inactive: 18%.

`COC(=O)c1sccc1S(=O)(=O)N(CC(=O)Nc1c(C)cccc1C)c1ccc(C)c(C)c1`: the activation is inactive: -13.7%.

With `Cc1c(N(C)C)c(=O)n(-c2ccccc2)n1C`, the activation was inactive: -24.5%.

With `Cc1c(Cl)cccc1NC(=O)Nc1nnc(N(C)Cc2ccccc2)s1`, the activation was inactive: -10.1%.

Regarding `CC(=O)c1ccc(NC(=O)Cn2cc(S(=O)(=O)Cc3ccccc3Cl)c3ccccc32)cc1`, the activation was inactive: -14.3%.

On to `Cc1c(NC(=O)C(C)(C)Oc2ccc(Cl)cc2)cccc1-c1nc2ncccc2o1`, for which the activation is inactive: 20.6%.

With `CC1=C(C(=O)NCc2ccccc2C)C2(CCCCC2)OC1=O`, the activation is inactive: -5.31%.

For the molecule `O=C(NCCCc1ccccc1)C1CCN(C(=O)N2CCOc3ccc(Cl)cc32)CC1`, the activation is inactive: 5.95%.

For the molecule `CCOc1ccccc1NC(=O)CCn1nc(C)c(S(=O)(=O)N2CCCCC2)c1C`, the activation was inactive: -23.7%.

For `COc1ccc(C2C=C(c3ccccc3)Nc3nc(NC(=O)/C=C/c4ccccc4)nn32)cc1` (configuration not stated), the activation is inactive: -25.2%.

Take `Cn1ccc2c(OCC(=O)Nc3cc(C(F)(F)F)ccc3Cl)cccc2c1=O`: the activation was inactive: 10.5%.

Consider `CCN(CC)S(=O)(=O)c1ccc2c(c1)c(=O)c(C(=O)N1CCN(c3ccc(F)cc3)CC1)cn2C`, for which the activation was inactive: -7.41%.

In the case of `COC(=O)CCN(c1ccccc1)S(=O)(=O)c1cc(-c2cc(C)no2)ccc1OC`, the activation is inactive: -23%.

Turning to `CCN1CCSc2ccc(C(=O)NCc3ccc(OC)cc3)cc21`, the activation was inactive: -18.8%.

On to `CCc1ccc(NC(=O)CSC2=Nc3ccccc3C3=NC(CC(=O)NCc4ccccc4)C(=O)N23)cc1` (configuration not stated), for which the activation was inactive: -14%.

As to `O=C(Cn1ncc2c3ccccc3n(Cc3cccc(Cl)c3)c2c1=O)NC1CCCCCC1`, the activation is inactive: -8.91%.

Turning to `CC(=O)N1CCc2cc(S(=O)(=O)CCC(=O)NCc3ccc(Cl)cc3)ccc21`, the activation is inactive: 23.5%.

For `CCOc1ccc2oc(=O)cc(CN3CCN(C(=O)c4ccc(F)cc4)CC3)c2c1`, the activation was inactive: -15.3%.

`CCNC(=O)CC1C(=O)N(c2cccc(OC)c2)C(=O)N1Cc1ccc(OC)c(OC)c1` (configuration not stated): the activation was inactive: -1.87%.

Consider `CS(=O)(=O)N1CCC(N2CCN(Cc3ccccc3)C(=O)C2=O)CC1`, for which the activation was inactive: -4.97%.

Turning to `CCc1ccc(-c2nc(CS(=O)CC(=O)NCCc3ccc(Cl)cc3)c(C)o2)cc1` (configuration not stated), the activation was inactive: -18.7%.

Turning to `O=C1CCSC2(C(=O)N(Cc3ccc(F)cc3)c3ccccc32)N1c1ccc(F)c(F)c1` (configuration not stated), the activation was inactive: -0.912%.

On to `O=S(=O)(Nc1cccc(-c2ccc(N3CCCCCC3)nn2)c1)c1cccc(F)c1`, for which the activation was inactive: -16.5%.

Take `CCOc1ccccc1N(CC(=O)N1CCc2ccccc2C1)S(=O)(=O)c1ccccc1`: the activation was inactive: -15.3%.

As to `Cc1nc2ncnn2c(C)c1CCC(=O)NCc1ccccc1Cl`, the activation is inactive: 5.6%.

With `COc1cccc(NC(=O)Cn2c(=O)n(-c3ccc(C)cc3)c(=O)c3ccc(C(=O)NCc4ccco4)cc32)c1`, the activation was inactive: -12.7%.

Regarding `Cc1c(C(=O)Nc2cccc(Cl)c2)oc2ccc(S(=O)(=O)N(C)C3CCCCC3)cc12`, the activation was inactive: -10.2%.

As to `CCC(Sc1nncn2c1cc1oc(C)cc12)C(=O)Nc1ccc(F)cc1` (configuration not stated), the activation is inactive: -21.9%.

The values are drawn from PubChem BioAssay AID1346428 (National Center for Advancing Translational Sciences (NCATS), 2018).
